The nature of data set [1]: xn = mol fraction of the nth substance listed. Particulars: 323.15 K; 101 kPa; x2 = 0.7.

± gives the uncertainty stated by the source. For part of its entries the source gives two or more results. The other results are left out here. An entry can have further records. The values listed for one entry are repeated measurements in other runs, samples, wells, individuals or studies. Marks in square brackets tell the records apart. The letters are not those of the source and start again with each entry.

For the compound `C[N+](C)(C)CCO.[Cl-]` + OCCO, the viscosity in data set [1] was 19 mPa·s [study A] and 18.72 ± 0.39 mPa·s [study B].

In the case of `OCCOCCO`, under “303.15 K, 101 kPa”, the viscosity was 21.87 ± 0.11 mPa·s [study A] and 21.87 ± 0.11 mPa·s [study B] and 21.87 ± 0.11 mPa·s [study C] and 21.87 ± 0.35 mPa·s [study D] and 21.87 ± 0.15 mPa·s [study E] and 21.87 ± 0.89 mPa·s [study F].

As to `Cc1ccc(C)cc1`, the viscosity (293.15 K, 101.33 kPa) was 0.648 ± 0.005 mPa·s, 0.648 ± 0.007 mPa·s [study A] and 0.6433 ± 0.017 mPa·s [study B] and 0.655 ± 0.009 mPa·s [study C]; the viscosity (298.15 K, 101.3 kPa) is 0.5936 ± 0.016 mPa·s [study A] and 0.602 ± 0.005 mPa·s [study B] and 0.605 ± 0.0043 mPa·s [study C] and 0.613 ± 0.007 mPa·s [study D]; the viscosity (298.15 K, 101.33 kPa) is 0.6071 ± 0.0077 mPa·s [study A] and 0.6045 ± 0.016 mPa·s [study B] and 0.551 ± 0.008 mPa·s [study C] and 0.61 ± 0.004 mPa·s [study D]; the viscosity (303.15 K, 101 kPa) was 0.564 ± 0.006 mPa·s [study A] and 0.5687 ± 0.015 mPa·s [study B] and 0.5874 ± 0.017 mPa·s [study C] and 0.5651 ± 0.004 mPa·s [study D] and 0.5578 ± 0.0051 mPa·s [study E] and 0.5203 ± 0.0082 mPa·s [study F]; the viscosity (308.15 K, 101 kPa) was 0.533 ± 0.008 mPa·s [study A] and 0.5538 ± 0.016 mPa·s [study B] and 0.533 ± 0.022 mPa·s [study C] and 0.5196 ± 0.0044 mPa·s [study D] and 0.534 ± 0.011 mPa·s [study E] and 0.5334 ± 0.012 mPa·s [study F]; the viscosity (308.15 K, 101.33 kPa) is 0.5381 ± 0.0069 mPa·s [study A] and 0.5355 ± 0.015 mPa·s [study B] and 0.49 ± 0.007 mPa·s [study C] and 0.539 ± 0.004 mPa·s [study D] and 0.563 ± 0.004 mPa·s [study E]. The viscosity is, setting by setting: (313.15 K, 101 kPa) 0.512 ± 0.005 mPa·s [study A] and 0.512 ± 0.014 mPa·s [study B] and 0.512 ± 0.012 mPa·s [study C] and 0.4592 ± 0.0075 mPa·s [study D]; (323.15 K, 101 kPa) 0.4664 ± 0.014 mPa·s [study A] and 0.4475 ± 0.0043 mPa·s [study B] and 0.4641 ± 0.013 mPa·s [study C] and 0.4046 ± 0.0069 mPa·s [study D].

Take `c1ccc(Nc2ccccc2)cc1`: the viscosity (323.15 K, 101.33 kPa) is 6.1 ± 0.074 mPa·s, 5.993 ± 0.072 mPa·s, 0.633 ± 0.008 mPa·s.

The term viscosity denotes the resistance of a fluid to flow. Low readings indicate a thin fluid, high ones a thick fluid.

The record behind these values is the CheMixHub viscosity set.
